Reference: the supplement of paper PMC5499739
Over roughly 16,000 sequences, “Z-score” has its median near -0.37; the highest 2% begin near 3.1. This is one part of the list.

Each sequence was assayed on RBM10 RRM1-ZnF-RRM2 (GST-tagged construct) (assay: RNAcompete 7-mer binding Z-score; higher = stronger binding preference).
Description: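 RNAcompete: 20 pmol GST-tagged RBM10 RNA-binding constructs were incubated with a designed RNA pool of about 241,000 sequences up to 41 nt (1.5 nmol) on glutathione beads for 30 min at 4 °C and washed. Bound RNAs were identified by microarray hybridisation. Each RNA 7-mer is scored by a one-sided Z-score of its enrichment, computed over probes that contain the 7-mer within longer pool sequences.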

Sequence	RNAcompete 7-mer binding Z-score
AGGUAAA	2.1
UCACUAC	-0.562
GCUGGUA	0.698
GGAGCGU	1.74
UUGUGAA	-0.00512
GGUCCAC	-0.224
UUCUAGG	-0.176
AACCUCU	-0.876
CUCCAAA	-0.846
UAGAAAG	0.709
GAAUCGA	0.0386
GGCUCCC	-0.151
GCCCCUU	-0.748
CGCAUCA	-0.712
GUUUGUA	-0.249
AAAUCGU	-0.442
ACUUCCU	-1.01
GCCGCUG	-0.3
CAUUUUA	-0.999
CUAGUGG	0.578
CCACGUG	-0.227
CUCACCG	-0.628
GGAUUCG	0.505

Sequence	RNAcompete 7-mer binding Z-score
CCCGGAG	-0.0816
CUGGGCA	0.76
ACUGUUU	-0.854
UUUCUGG	-0.333
AAAAGGG	3.58
UAUCGCU	-0.683
GUGGGAA	3.49
UUUCCUG	-0.701
UUUCAGA	-0.599
UCCAAAA	-0.628
AUAUUAA	-0.395
UCCGUUU	-0.777
ACUCGAC	-0.799
AUGUAAG	0.235
UUGUUGC	-0.865
CUAGAAU	-0.628
UUGCGAG	-0.0124
GACCGGU	-0.0634
CUUUUUG	-0.89
CGUGAUC	-0.632
UACCUAA	-0.624
UAUUCAG	-0.362
CGCCAAG	-0.424

Sequence	RNAcompete 7-mer binding Z-score
UACUGGU	0.0277
CCUUGCG	-0.661
UUGCCGG	-0.493
CUGGCAG	0.024
CGGCGGG	1.97
CAGGCGA	1.17
CCCUACU	-0.763
UCUGACG	-0.686
GGGACCU	0.541
GCAACCG	-0.431
CGAUUCC	-0.868
GGUCAGA	0.782
CGGAUCA	0.578
CCUCAAA	-0.901
UCCGCGG	-0.129
GUUUUAU	-0.482
UUAGGUU	0.65
UCGAAGA	-0.158
UUUAUUU	-0.726
CAAAAAC	-0.519
CCCAAAC	-0.704
CGCUUGU	-0.81
GUUAUAC	-0.144

Sequence	RNAcompete 7-mer binding Z-score
ACUAAGC	-0.602
AAGCGGG	3.03
GGGCGUC	1.14
CGAGGUC	0.25
UAGUCGG	0.589
CGGACUA	-0.0853
CAAGAGC	-0.0343
UUAUAAG	-0.442
GGGUGGC	2.45
CGUGGCA	0.643
GGCGCGC	0.694
GACCCGU	-0.876
GCAUCAC	-0.548
CCCUAUU	-0.894
CUGUCUC	-0.894
CAUUGUA	-0.584
CGUUGGC	-0.209
CAGGAGG	2.42
UCGGCGU	0.297
GCGCGAC	-0.304
AUUACGG	0.439
CAUGAAA	-0.242
GCCUGCA	-0.621
